# Results taken from PubChem BioAssay AID624296 (National Center for Advancing Translational Sciences (NCATS), 2012).
# The whole screen tested about 350,000 compounds, of which about 9,900 (2.8%) were called active. The inconclusive results got no clear call from the source; some entries with a clear call stand among them for comparison. The call rests on the fitted dose curve; in most records, active means well fitted activation curve with a large enough effect; inconclusive means small, poorly fitted or top-dose-only effect; inactive means no such curve, though single readings can be large or run the other way. No potency is given beside an inconclusive call; the fits are too rough.
# Assay: A quantitative high throughput screen for small molecules that induce DNA re-replication in MCF 10a normal breast cells. Further: nearly all actives have a fitted effect of over 50% in size.
# Settings: MCF 10A DNA re-replication, Hoechst nuclear intensity, 48 h; series mostly up to 46.1 µM
# Potency means the concentration at half of the fitted maximal effect; tags describe the fitted curve by direction and shape.
row,SMILES,Potency
1,COc1ccccc1-c1noc(CSc2nc(C)cc(=O)[nH]2)n1,"inconclusive [activator, single point]"
2,COc1ccccc1-n1c(=S)[nH]c2c(sc(=S)n2-c2ccccc2C)c1=O,"inconclusive [activator, single point]"
3,Cc1cc(NC(CC(C)C)C(=O)O)nc(Cc2ccccc2)n1 (stereo not drawn),"inconclusive [activator, single point]"
4,Cc1coc2c1c(C)cc1oc(=O)c(CC(=O)NCCCN3CCCC3=O)c(C)c12,inactive
5,CC(C)CNc1c(N)c(=O)oc2ccccc12,"inconclusive [activator, full curve, poor fit]"
6,CSc1ccc(/C=C/C(=O)c2ccc(NC(=O)Cc3ccccc3)cc2)cc1,"inconclusive [activator, single point]"
7,O=C(CCNC(=O)c1ccc(Br)cc1)Nc1ccccc1N1CCOCC1,"inconclusive [activator, partial curve, poor fit]"
8,CC1=CC(=C(C#N)C#N)C=C(C)N1CCN1CCN(C(=O)Nc2cccc(Cl)c2)CC1,"inconclusive [activator, single point]"
9,CC(C)(C)Nc1nc(Cl)nc(NCc2ccccc2)n1,inactive
10,Fc1ccc(-c2ccc3c(c2)C2CC3CCN2)cc1 (stereo not drawn),inactive
11,COc1cc(NC(=O)c2cccc(C)c2)ccc1NC(=O)c1cc2ccccc2o1,active: 2.59 µM
12,N#Cc1c(-c2ccccc2)cc2nc3ccccc3n2c1N,active: 11.6 µM
13,CCC(=O)NC(=S)NNC(=O)c1ccccc1[N+](=O)[O-],inactive
14,CCc1ccc(Nc2ncnc3nc[nH]c23)cc1,"inconclusive [activator, partial curve, poor fit]"
15,CN(C)S(=O)(=O)c1cccc(NC(=O)c2ccc(N3CCOCC3)c([N+](=O)[O-])c2)c1,"inconclusive [activator, single point]"
16,C/C(=C\C(=O)c1ccc(Cl)cc1Cl)N(C)C,inactive
17,CCN(CC)CCP(=O)(c1ccccc1)c1ccccc1,active: 9.2 µM
18,O=S(=O)(Nc1ccc(-c2ccc(NS(=O)(=O)c3ccccc3)cc2)cc1)c1ccccc1,"inconclusive [activator, partial curve, poor fit]"
19,COc1ccccc1NS(=O)(=O)c1ccc(NC(=O)Cc2cccs2)cc1,inactive
20,O=c1oc2ccc(C#CC3(O)CCCCC3)cc2cc1-n1cc(C2(O)CCCCC2)nn1,"inconclusive [activator, full curve, poor fit]"
21,CSc1nc(N)nc(SCCS(=O)(=O)c2ccc(Cl)cc2)c1C#N,active: 13 µM
22,Cc1cc(C(=O)CSc2nnc(-c3ccc(F)cc3)o2)c(C)n1CC1COc2ccccc2O1 (stereo not drawn),active: 16.4 µM
23,COc1cccc2c1C1(O)C2CCCCCCCCCC12OCCCO2 (stereo not drawn),"inconclusive [activator, full curve, poor fit]"

row,SMILES,Potency
1,COc1ccccc1N(C(=O)c1snc(C(N)=O)c1N)C(C(=O)NC1CCCC1)c1ccco1 (stereo not drawn),inactive
2,Clc1cc(-c2ccccc2)nc(-c2ccccc2)n1,"inconclusive [activator, single point]"
3,OCCOCCn1c(CCNc2nc(-c3ccc(Cl)cc3)cs2)nc2cc(Cl)c(Cl)cc21,"inconclusive [activator, single point]"
4,CCOC(=O)c1ccc(NC(=S)N(CCN2CCCCCC2)Cc2ccco2)cc1,"inconclusive [activator, partial curve]"
5,COC(=O)c1ccc(NC(=O)c2ccccc2NS(=O)(=O)c2ccccc2)cc1,"inconclusive [activator, single point]"
6,O=C(c1cccnc1)N1CCN(Cc2ccc3ccccc3c2)CC1,active: 18.4 µM
7,CCN=C1S/C(=C\c2ccc(N3CCOCC3)cc2C)C(=O)N1CC,"inconclusive [activator, partial curve, poor fit]"
8,O=S(=O)(NCC1CCC(NS(=O)(=O)c2c(F)cccc2F)CC1)c1ccc2c(c1)OCCO2 (stereo not drawn),"inconclusive [activator, partial curve, poor fit]"
9,Cc1ccc(-n2cc(C(=O)c3cc(Cl)ccc3O)cc(C#N)c2=O)cc1,"inconclusive [activator, single point]"
10,Cc1ccc(C(=O)N/C(=C/c2cccs2)C(=O)NCCc2c[nH]c3ccccc23)cc1,"inconclusive [activator, single point]"
11,O=C(CSc1nnc(-c2ccccc2)c(-c2ccccc2)n1)Nc1ccc(Br)cn1,"inconclusive [activator, single point]"
12,COc1ccc(-n2c(C)cc(/C=C3\C(=N)N4N=C(CC(=O)N5CCOCC5)SC4=NC3=O)c2C)c(OC)c1,"inconclusive [activator, partial curve]"
13,Cc1ccc(SC2=C(N(C)C)C(=O)c3ccccc3C2=O)cc1,active: 11.6 µM
14,COc1cc2ccccc2cc1C(=O)Nc1ccc(CN2CCOCC2)cc1,"inconclusive [activator, partial curve, poor fit]"
15,CCN(c1ccccc1)S(=O)(=O)c1ccc(C(=O)OC(C)C(=O)NCCC2=CCCCC2)cc1 (stereo not drawn),"inconclusive [activator, partial curve, poor fit]"
16,COc1ccc(NC(=O)CN2CCC(C)CC2)c([N+](=O)[O-])c1,inactive
17,Fc1ccc2nc(Nc3nc4cc5c(cc4s3)OCCO5)sc2c1,active: 14.6 µM
18,Cc1cc2occ(CC(=O)N(CC(C)C)c3c(N)n(Cc4ccccc4)c(=O)[nH]c3=O)c2cc1C,"inconclusive [activator, single point]"
19,CCN(CC)S(=O)(=O)c1cc(NC(=O)c2cc(-c3ccccn3)nc3ccccc23)ccc1C,"inconclusive [activator, full curve, poor fit]"
20,Cc1ccc(NC(=O)COc2cccc3ccccc23)c(O)c1,"inconclusive [activator, single point]"
21,CCNC(=O)NC(=O)CSc1cccc(C(F)(F)F)c1,"inconclusive [activator, partial curve, poor fit]"
22,CCC(NC(=S)NCc1ccc(F)cc1)c1ccc(C)cc1 (stereo not drawn),inactive
23,O=C1/C(=C/c2ccccc2)CCCc2ccccc21,inactive

row,SMILES,Potency
1,COc1cc(CCCN2C(=S)NC[C@@H]2Cc2ccccc2)cc(OC)c1OC,"inconclusive [activator, single point]"
2,Fc1cccc(NC(=S)N2CCCCC2)c1,inactive
3,COc1cc(OC)c(OC)cc1CCC(C)NC(=O)Cc1ccccc1 (stereo not drawn),inactive
4,Cc1cc(C(=O)N2CCN(S(=O)(=O)c3ccccc3F)CC2)c(C)o1,inactive
5,C/C(=N\NC(=O)c1ccc(C)cc1)C1C(=O)c2ccccc2C1=O,"inconclusive [activator, partial curve, poor fit]"
6,O=S(=O)(NCc1ccc2c(c1)OCO2)c1cccc(F)c1,"inconclusive [activator, single point]"
7,CC(C)(C)NC(=O)C(c1ccco1)N(Cc1ccc(F)cc1)C(=O)c1snc(C(N)=O)c1N (stereo not drawn),inactive
8,O=C(N/N=C/c1ccccc1)c1cccc2ccccc12,"inconclusive [activator, single point]"
9,O=C(Cc1cccc2ccccc12)N/N=C1\CCCc2ccccc21,"inconclusive [activator, full curve, poor fit]"
10,Cc1nc(NCCc2ccc(F)cc2)c(C#N)c(C)c1[N+](=O)[O-],"inconclusive [activator, single point]"
11,CCCCNc1c(-c2cccc(SC(C)CC)c2)nc2ccc(Cl)cn12 (stereo not drawn),"inconclusive [activator, partial curve, poor fit]"
12,Cc1ccc(-c2nn(C)c(=O)c3ccccc23)cc1CNC(=O)c1ccccc1,inactive
13,COc1ccc(N2CCN(c3ccc4nnc(CCC(=O)Nc5ccc(C)cc5)n4n3)CC2)cc1,inactive
14,CC(=O)Nc1ccc(S(=O)(=O)N(C)CC(=O)OCC(=O)N2CCCC2=O)cc1,"inconclusive [activator, single point]"
15,CCOC(=O)N1CCC(NC(=O)C2CCCN(Cc3nc(-c4cccc(C)c4)oc3C)C2)CC1 (stereo not drawn),"inconclusive [activator, partial curve, poor fit]"
16,Cc1c(C)c2ccc(OC(C)C(=O)NCCc3c[nH]c4ccccc34)cc2oc1=O (stereo not drawn),"inconclusive [activator, full curve, poor fit]"
17,CCCN(CCC)S(=O)(=O)c1ccc(C(=O)Nc2nnc(CSC)o2)cc1,"inconclusive [activator, partial curve]"
18,Cn1c(-c2ccc(F)cc2)cc2onc(-c3c(F)cccc3Cl)c2c1=O,active: 2.31 µM
19,CCOc1ccc(NS(=O)(=O)c2ccc(C(=O)NCC(C)(C)N3CCOCC3)cc2)cc1,"inconclusive [activator, single point]"
20,CCOc1ccc(OCCC(=O)OCC(=O)Nc2cc(S(=O)(=O)N3CCOCC3)ccc2C)cc1,"inconclusive [activator, single point]"
21,COc1ccc(C(=O)NCCCNC(=O)c2ccccn2)cc1Br,inactive
22,Oc1ccc(NCc2ccc(OCc3ccccc3)cc2)cc1,"inconclusive [activator, single point]"
